About 1,700 (3.3%) of roughly 52,000 compounds were called active. No stated cut-off is given here; in the data, active means survival mostly below about 52% (no sharp cut-off); inactive means mostly above about 56%. Some of the results follow.
test system: Wild type; experiment: S. aureus survival, RN4220 and DeltatarO strains – OD600, teichoic acid synthesis inhibitors, primary screen (AID 463173); conditions: S. aureus RN4220 wild type/DeltatarO growth, OD600, 18 h, stronger effect = lower value, screened at 18.75 µg/mL (by protocol)

SMILES | survival
CCn1cc(C(=O)O)c(=O)c2cc(F)c(N3CCN(C(=O)c4ccccc4F)CC3)cc21 | inactive: 54%
COc1ccc(N2CCN(S(=O)(=O)c3ccc(F)c(C(=O)Nc4ccccc4Cl)c3)CC2)cc1 | inactive: 70%
COc1cc2c(cc1OC)C(c1cccc(Cl)c1)CC(=O)N2 (stereo not given) | inactive: 72%
CC(C)(C)OC(=O)N1CCC(c2c(C(=O)NCc3cccs3)cnn2-c2cccc(F)c2)CC1 | active: -6%
COc1ccc(Cl)cc1NC(=O)N1CCN(S(=O)(=O)c2ccc3c(ccn3C)c2)CC1 | inactive: 101%
O=C(c1ccc(F)cc1)N1CCc2c([nH]c3ccccc23)C1c1ccc(Cl)cc1 (stereo not given) | inactive: 66%
CCc1ccc(OCCSc2nc3ccccc3n2CC(=O)N2CCCCC2)cc1 | inactive: 70%
CCOc1ccc(NCc2cccn2-c2nnc(N3CCC(C(=O)NCc4ccccc4Cl)CC3)s2)cc1 | inactive: 81%
c1ccc2c(c1)ncn2CCn1cnc2ccccc21 | inactive: 104%
CC(C)Oc1ccc(NC(=O)C2COc3ccccc3O2)cc1 (stereo not given) | inactive: 109%
Cc1ccc(OCCSc2nc(-c3ccccc3C)nc3cc(=O)[nH]n23)cc1Cl | inactive: 124%
COc1ccccc1N1CCN(c2ncnc3c2c(-c2ccccc2)cn3-c2cccc(Cl)c2)CC1 | inactive: 74%
CCc1nn(C(CC)C(=O)NCc2ccc(OC)c(OC)c2)c(=O)c2cc3oc(C)cc3n12 (stereo not given) | inactive: 87%
Cc1nn(-c2nc(-c3ccccc3)cc(C(F)(F)F)n2)c(C)c1Cl | active: -3%
CCOc1ccc2c(c1)c(=O)c(C(=O)c1ccc3c(c1)OCO3)cn2Cc1ccc(F)cc1 | inactive: 79%
COc1cc(/C=C(\C#N)c2nc3ccc(C)cc3[nH]2)ccc1OCc1ccc(C)cc1 | inactive: 68%
COc1ccc(S(=O)(=O)N2CCC(Oc3ccc(-n4cnnn4)cc3)CC2)cc1 | inactive: 88%
COc1cccc(OC)c1C(=O)NCCc1sc(-c2cccc(F)c2)nc1C | inactive: 97%
O=C(c1cc2ccccc2oc1=O)N1CCCCCC1 | inactive: 88%
CCCCNC(=O)c1cccc(NC(=O)c2nsc3ccccc23)c1 | inactive: 59%
CCN(C(=O)c1cn(-c2cccc(OC)c2)c(=O)c2ccccc12)c1ccccc1C | inactive: 79%
c1ccc(-c2nc(-c3cccnc3)no2)cc1 | inactive: 103%
CC(=O)Nc1ccc(NC(=O)c2nc(S(=O)(=O)Cc3ccc(F)cc3)ncc2Cl)cc1 | inactive: 64%

SMILES | survival
COc1cccc(CNC(=O)c2cnc3c(-c4ccc(F)cc4)c(C)nn3c2C)c1 | inactive: 136%
CCc1ccc(C2C(C(=O)Nc3ccccc3OC)=C(C)Nc3c(C(=O)Nc4ccc(C)cc4)cnn32)cc1 (stereo not given) | inactive: 74%
CC1CCCN(C(=O)CN2CCN(C(=O)c3ccco3)CC2)C1 (stereo not given) | inactive: 119%
COc1ccc(C(=O)Nc2ccccc2-c2nc3ccccc3s2)cc1OC | active: -6%
Cc1ccc(C)c(NC(=O)CSc2nccn2-c2cccc(C)c2C)c1 | inactive: 83%
COc1cccc(NC(=O)CN2C(=O)c3ccccc3Sc3ncccc32)c1 | inactive: 91%
CCOc1ccc(C(=O)N(C)CC2COc3ccccc3O2)cc1 (stereo not given) | inactive: 98%
COc1ccc(NC2=C(c3ccc(C(F)(F)F)cc3)C(=O)c3ccccc32)cc1 | inactive: 92%
CCc1ccc(C2C(C#N)=C(N)Oc3cc(N)ccc32)cc1 (stereo not given) | inactive: 102%
COc1ccccc1C(=O)Nc1c(C(=O)NC(C)(C)C)oc2ccccc12 | inactive: 80%
Cc1ccc(-n2nc(C)c3c(C(F)(F)F)cc(-c4cccnc4)nc32)cc1Cl | inactive: 84%
COc1cc(OC)c(N(C)C(=O)Nc2cn(CC(C)C)c(=O)c3ccccc23)cc1Cl | inactive: 71%
CCCc1nn2c(=O)cc(COC(=O)CNC(=O)COc3ccc(C)cc3)nc2s1 | inactive: 67%
CCOC(=O)c1ccc(NC(=O)c2cn3c4c(ccc(Cl)c4c2=O)OC(C)C3)cc1 (stereo not given) | inactive: 59%
CSc1nc2ccccc2n1CC(=O)Nc1c(C)cccc1C | inactive: 109%
Cc1ccc(-c2nc(C)c(CCNC(=O)c3ccccc3Br)s2)cc1 | inactive: 71%
CC1CCN(c2ccc(-c3cccc(NS(=O)(=O)c4ccc(F)cc4F)c3)nn2)CC1 | inactive: 135%
Cn1c(=O)c(C(=O)NC2CCCCCC2)c(O)c2ccccc21 | inactive: 104%
CC1CCN(C(=O)CSc2nc(-c3ccc(F)cc3)cc(C(F)(F)F)n2)CC1 | active: 11%
CCOC(=O)c1sc(NC(=O)c2c(-c3ccccc3)c(-c3ccccc3)nn(C)c2=O)nc1C | inactive: 71%
Cc1cccc(-n2c(=O)c3ccccc3n(Cc3ccc(F)cc3)c2=O)c1 | inactive: 81%
CCc1ccc(Nc2nc3ccccc3nc2NS(=O)(=O)c2ccccc2)cc1 | inactive: 46%
COc1ccc(N(C)C(=O)Cn2cc(S(=O)(=O)N3CCN(c4ccccc4F)CC3)c3ccccc3c2=O)c(OC)c1 | inactive: 99%

SMILES | survival
Cc1ccc(NC(=O)/C=C/c2ccccc2Cl)cc1Cl | inactive: 97%
COc1ccc(NC(=O)C2=C(C)Nc3nc(SCc4ccc(Cl)cc4)nn3C2c2cccc(OC)c2OC)cc1 (stereo not given) | inactive: 60%
CCCCOC(=O)c1ccc(NC(=O)c2sc3nc(C)cc(C)c3c2N)cc1 | inactive: 79%
O=C(Cn1c(=O)nc(-c2ccccc2)c2ccccc21)Nc1ccc(Cl)cc1F | inactive: 59%
c1ccc(-c2cc3n(c2)CCc2ccccc2-3)cc1 | inactive: 106%
COC(=O)Cc1c(C)c2ccc3c(c2oc1=O)CN(Cc1ccccc1Cl)CO3 | inactive: 86%
CCOc1ccc(-c2c(C)nn3c(C)c(C(=O)NCCc4ccc(C)cc4)cnc23)cc1OCC | inactive: 98%
CCc1c(C)sc2c1CCN(Cc1ccccc1F)C2c1ccccc1 (stereo not given) | inactive: 66%
Cc1nc2cccnc2n1C1CCN(C(=O)Nc2ccc(Cl)cc2)CC1 | inactive: 68%
O=C(NCCSc1c[nH]c2ccccc12)c1ccccc1Cl | inactive: 66%
COc1ccc(NC(=O)C2CCN(S(=O)(=O)c3c(C)noc3/C=C/c3cccs3)CC2)cc1Cl | inactive: 85%
COCCNC(=O)c1ccccc1NC(=O)c1nsc2ccccc12 | inactive: 73%
CNC(=O)CN1C(=O)COc2ccc(S(=O)(=O)N3CCC(C)CC3)cc21 | inactive: 88%
COC(=O)c1ccc(CSC(=N)N)o1 | inactive: 101%
CCSc1nnc(CNc2ccc(F)cc2)n1-c1ccc(C)cc1 | inactive: 110%
COC(=O)Cn1c(SCCOc2ccccc2OC)nc2ccccc21 | inactive: 91%
Cc1cc2[nH]c(=O)c(=O)[nH]c2cc1S(=O)(=O)N1CCN(c2cccc(Cl)c2)CC1 | inactive: 88%
COc1ccc2[nH]cc(CCN=C(NC(=O)c3ccccc3OC)Nc3nc(C)cc(C)n3)c2c1 | inactive: 94%
CCc1cc2c(cc3c(=O)n(CC(=O)NCCc4ccc(OC)cc4OC)nc(CC)n32)s1 | inactive: 84%
O=S(=O)(NC1CCCCC1)c1ccc(S(=O)(=O)N2CCN3CCCC3C2)cc1 (stereo not given) | inactive: 86%
COc1cccc(Cn2cc(C(=O)c3ccc(Cl)cc3)c(=O)c3ccccc32)c1 | inactive: 76%
Cc1ccc(NC(=O)c2ccc(NC(=O)CCS(=O)(=O)c3cccs3)cc2)cc1F | inactive: 74%
CCSc1ncc(Cl)c(C(=O)Nc2cccc(Cl)c2)n1 | inactive: 84%

SMILES | survival
Cc1ccccc1Nc1c(-c2ccc(N3CCOCC3)cc2)nc2ccc(Br)cn12 | inactive: 88%
N#C/C(=C\c1ccc(-c2ccc(Br)cc2)o1)C(=O)OC1CCCCC1 | inactive: 103%
Cc1ccc2c(=O)cc(C(=O)Nc3c(C)n(C)n(-c4ccccc4)c3=O)oc2c1 | inactive: 82%
CCOC(=O)C1(C)C=C(Nc2cccc(C(=O)O)c2)C(=O)N1c1ccccc1 (stereo not given) | inactive: 91%
Cc1ccc(CNC(=O)C(=O)NCC(c2ccc3c(c2)OCO3)N2CCOCC2)cc1 (stereo not given) | inactive: 75%
Cc1ccc(Nc2ncnc3sc4c(c23)CCC(C)C4)cc1C (stereo not given) | inactive: 64%
COc1cc(NC(=O)CSc2nc3nc(C)c(Cc4ccccc4Cl)c(C)n3n2)cc(OC)c1 | inactive: 75%
COc1ccccc1N1CCN(C(=O)C2CCCN(S(=O)(=O)c3ccc4c(c3)CCCN4C(C)=O)C2)CC1 (stereo not given) | inactive: 69%
Cn1nc(CC(=O)Nc2ccc(N3CCN(C(=O)OC(C)(C)C)CC3)cc2)c2ccccc2c1=O | inactive: 103%
COc1cc(Cl)c(C)cc1NC(=O)c1cnc(N2CCCCC2)c2ccccc12 | inactive: 115%
CCCOc1ccc(CNC(=O)C(NS(=O)(=O)c2cccs2)C(C)C)cc1 (stereo not given) | inactive: 68%
CC(C)Cn1c(-c2cccc(Br)c2)nc2ccccc21 | active: 27%
COC(=O)C(CCSC)Nc1ncnc2onc(-c3ccc(F)cc3)c12 (stereo not given) | inactive: 74%
COc1cc2nc(SCc3ccc(C)cc3)n3nc(CCn4nc(C)cc4C)nc3c2cc1OC | inactive: 73%
CCOc1ccccc1NC(=O)C(=O)Nc1ccc2nc3n(c(=O)c2c1)CCCCC3 | inactive: 75%
CC(C)NS(=O)(=O)c1ccc(CCC(=O)Nc2ccc3c(c2)OCCO3)cc1 | inactive: 110%
Cc1cc(C)cc(NC(=O)C(Cc2ccccc2)NS(=O)(=O)c2ccc3c(c2)CCC(=O)N3)c1 (stereo not given) | inactive: 82%
OCc1cnc(SCc2ccccc2F)n1Cc1ccc(F)cc1 | inactive: 76%
Nc1n[nH]c2c1C1(CCCC1)Cc1ccccc1-2 | inactive: 137%
Cc1cc(C)cc(NC(=O)Cc2noc3ccccc23)c1 | inactive: 90%
O=C(c1ccccc1)N1c2nc(-c3ccco3)nn2C2(CCCCC2)[C@@H]2CCCC[C@@H]21 | inactive: 84%

Source: PubChem BioAssay AID463173 (ICCB-Longwood Screening Facility, Harvard Medical School, 2010)
